# Article PMC12136788
# The list shows a part of the results.
# B1: chr2:224378697:224380208:-|three_prime_utr|ENSG00000124019|control|control|control (ssRNA)
# RNA: GGGAGUUCUACAGUCCGACGAUCUCCUUCAUCUGCAAGUUCAGGGUGAAGAAAAAGAAGAAGAUGAAGAAGAAUUCUUUAUAUAGCAUAAAAUAAAUGUGGUUUUCUAAAACACAAGAUCAGAUAAAAUGUUCUAGAAAUGGACAACAGAGGAUUGAGCAUCA
# B2: chr3:36528868:36528981:+|CDS|ENSG00000144681|unk|total|mutant (ssRNA)
# RNA: GGGAGUUCUACAGUCCGACGAUCAGAAUUGGCUUCUUUCCAGCCAACUUUGUUCAGAGACUACAACAAAAUGAGAAGAUUUUCCGAUGUGUCCGAACCUUCAUUGGGUGUAAGGAACAGGGGCAGAUAACACUGAAAGAGAAUCAACAGAGGAUUGAGCAUCA
# B3: chr1:51287257:51288280:-|three_prime_utr|ENSG00000085831|control|control|control (ssRNA)
# RNA: GGGAGUUCUACAGUCCGACGAUCCAUGGAGUCAAGGACACACUUUCGAAUCCAGGCAGCCACACUCCAAGCCAAGUCUUCCCUAGAGAACAGCAGCAGAUCCAUGGUCUCAUCAGUGUCCUUGUAGCUUUGUGCAGCAGUUCCCAACAGAGGAUUGAGCAUCA
# B4: chr7:2664602:2664704:+|3pUTR|ENSG00000136295|msi1_unk|total|mutant (ssRNA)
# RNA: GGGAGUUCUACAGUCCGACGAUCUCCUCCAGCCUCUGCCGGGCCAUGGCUGUAUGUACUGUCGCUGUGUUUUUUUGUUUUUUCCGAACUGGGUUUGGGGGCUGAUUUUUAUUUCUUUGGGGGCUUUUUUUCUUGGCAAAUACUCAACAGAGGAUUGAGCAUCA
# B5: chr5:95898239:95898810:-|CDS|ENSG00000118985|control|control|control (ssRNA)
# RNA: GGGAGUUCUACAGUCCGACGAUCGUUGACAGUUUUAGUCAAAACGAUAGUAUCUAUGAGGACCAGCAAGACAAAUAUACCUCUAGGACUUCUCUGGAAACCUUACCCCCUGGUUCCGUUCUACUAAAGUGUCCAAAGCCUAUGCAACAGAGGAUUGAGCAUCA
# B6: chr5:83943476:83943577:-|CDS|ENSG00000164176|msi1|FALSE|unique (ssRNA)
# RNA: GGGAGUUCUACAGUCCGACGAUCAUAAAAAUAAUUUCAAAGAAAGAAGGCUGUGUGACUGACAUUUUUCUGCUCUUCUUUAUUAGGUUUUCCAGGGAAAUUUUGACAAUGACACUCACAGAAAAAAUGUCAUCGACCCUCCCACAACAGAGGAUUGAGCAUCA
# B7: chr15:66548596:66548706:+|3pUTR|ENSG00000174442|unk|FALSE|unique (ssRNA)
# RNA: GGGAGUUCUACAGUCCGACGAUCUAGCAAGGGCUCUGAAAUGACAAAGAGAACGAGCACCACAAAUGAGAACAGGAUCAUUUUAGUAAAUACAGCUUUAUCCCAAAAGCUUUAACUGUAUUGGGAAAACUUAAAAAAUAGCAUCAACAGAGGAUUGAGCAUCA
# B8: chr10:121957106:121957207:-|3pUTR|ENSG00000107672|msi1|FALSE|bound_elsewhere (ssRNA)
# RNA: GGGAGUUCUACAGUCCGACGAUCUGUAUCGUACAUAUUGUAUGAUUCAACAUUUUUAAAGGCAGAUUGUUUUUAGUAAAAUGUAGCUUUUGAUAGUUAAUAAAUUUGUCAUGGUUGUCUUUGAUUAAAGGAAACUCACCGCCACAACAGAGGAUUGAGCAUCA
# B9: chr1:31179744:31181702:-|three_prime_utr|ENSG00000084628|control|control|control (ssRNA)
# RNA: GGGAGUUCUACAGUCCGACGAUCUCAGACCCAUCCCAUCCCACCACACUCACUCACCAGCUCUGGGGAAAGCUACUGUGAACUAGGAGCAGGAUUCCUGGGUUCUAAUCGCAGGUCCAUCACUGACUGUGACGUCUAGCAAAGCAACAGAGGAUUGAGCAUCA
# B10: chr10:117284474:117284575:-|CDS|ENSG00000165650|msi1|total|mutant (ssRNA)
# RNA: GGGAGUUCUACAGUCCGACGAUCAUUGCAUUGUGGUGCAGGGAUCCUUUCAAGUUGGGAGGUCUCAUCUGUUUGGGGCAUGUCCGUUUAAAACUUGAAGAUGUGGCUUCCGGAUGCCCCGCUACAUCAAACACGGAAUACCUUCAACAGAGGAUUGAGCAUCA
# B11: chr1:22530103:22530204:+|3pUTR|ENSG00000184677|msi1|FALSE|unique (ssRNA)
# RNA: GGGAGUUCUACAGUCCGACGAUCCAUGUAUAGAGUGGGCAGGCGGUUCCAGGGAGACAAGCAGCAUGUUAUUAAAUUGGGCCUAGGCAGUUGGACGAUAAUGGAGAAAAAGCAGGGAUGCUAUAAUGAGUCCUCCCCAAGGGUCAACAGAGGAUUGAGCAUCA
# B12: chr19:35125195:35125507:-|CDS|ENSG00000153902|control|control|control (ssRNA)
# RNA: GGGAGUUCUACAGUCCGACGAUCCUCGCGCGGUGCCCACGUCUUCCAGCCACUGCUCAUCGCCAGGGACCAGCUGGCCAUCCUAGGCAGCGACUUCGCCUUCAGCCAGGUCCUCCGCCUUGAGCCUGACAAGGGGCUCCUGGACAACAGAGGAUUGAGCAUCA
# B13: chr15:55376998:55377117:-|CDS|ENSG00000260916|unk|total|mutant (ssRNA)
# RNA: GGGAGUUCUACAGUCCGACGAUCUAUCUAUAUUGGAACUGCCAGUGAUGAUUCUGAUAUUGUUACCCUUGAGCCACCUAAGUCCGAAGAAAUUGGAAAUCAAGAAGUUGUCAUUGUUGAAGAAGCACAGAGUUCAGAAGACUUCAACAGAGGAUUGAGCAUCA
# B14: chr8:96261867:96261970:+|5pUTR|ENSG00000156471|unk|total|mutant (ssRNA)
# RNA: GGGAGUUCUACAGUCCGACGAUCUCCUUCCCUCUGCUCCCAGCCUUUGCUGGGCGCCAGACCCGGCUUUGCCGUCCGGCUAUCCGCCUACUGUGGCCCGUCACCCCCGGGGUCCCGGCCUUCUCGGGCUGGGGCCGCCGCCACCAACAGAGGAUUGAGCAUCA
# B15: chr8:97276997:97277102:-|CDS|ENSG00000180543|unk|FALSE|unique (ssRNA)
# RNA: GGGAGUUCUACAGUCCGACGAUCAUCCCGGGCUUCUGGGGGCAAGCAUUUCAGAACCAUCCCCAGCUAGCAUCCUUUCUGAAUAGCCAAGAGAAAGAGGUACUGAGCUACUUAAACAGCUUGGAAGUGGAAGAGCUCGGCCUUCAACAGAGGAUUGAGCAUCA
# B16: chr10:29523788:29523889:-|CDS|ENSG00000197321|unk|FALSE|unique (ssRNA)
# RNA: GGGAGUUCUACAGUCCGACGAUCAAUGCAAGUGCCACUGACUAUAAGUUUUCUUCUUCAAUAGAAAAUUCGGACUCUCCAGUUAGAAGCAUUCUGAAAUCGCAAGCUUGGCAGCCUUUGGUAGAGGGUAGCGAGAACAAGGGACAACAGAGGAUUGAGCAUCA
# B17: ENSG00000107863:be:win_4301|CDS|ENSG00000107863|bound_else_gene|NA|bound_elsewhere_windowed (ssRNA)
# RNA: GGGAGUUCUACAGUCCGACGAUCAAGAUGAACUGGACAAUGUAUUUUUUAAGAAAGAAAAUGUGGAACAGUGUCACAAUGAUACUAAAGAGGAGUCCAAAAAAGAAAGUGAGACACUGGGCAGAAAACAGAAGAUCAUCAUUGCAACAGAGGAUUGAGCAUCA
# B18: chr1:153662446:153662560:-|CDS|ENSG00000143621|unk|total|mutant (ssRNA)
# RNA: GGGAGUUCUACAGUCCGACGAUCAAUCACCUUUUUCUCUUUCCCCGAUCUUGCUUCUGAAAUAUCUACCUGGGAUGGAGUGACCGUAACACCUUCAGAAAAGGCUUAUGAGAAGCCACCAGAGAAGAAGGAAGGAGAGGAAGACAACAGAGGAUUGAGCAUCA
# B19: ENSG00000107863:be:win_101|CDS|ENSG00000107863|bound_else_gene|NA|bound_elsewhere_windowed (ssRNA)
# RNA: GGGAGUUCUACAGUCCGACGAUCCUGUAUCACUGUCUGAAGAUGAAACAUUCUCCUGGCCAGGUCCCAAAACAGUUACGUUGAAAAGAACAUCUCAAGGCUUUGGUUUUACAUUAAGACAUUUUAUUGUUUAUCCCCCAGAGUCAACAGAGGAUUGAGCAUCA
# B20: ENSG00000197321:stop:overlap|stop_codon|ENSG00000197321|stop_codon|NA|stop_codon (ssRNA)
# RNA: GGGAGUUCUACAGUCCGACGAUCAGUUCCAUGAGGGGGAUGCCUAUGUGGUCAAGUGGAAGUUCAUGGUGAGCACGGCAGGUUAGUGAGCGCUUGUGGUUUUUUCCAGCUGAAAGAGGCUGGCCCGGCAGCCCUGCGGGAGCCCAACAGAGGAUUGAGCAUCA
# B21: chrX:120627021:120627135:-|CDS|ENSG00000171155|unk|FALSE|unique (ssRNA)
# RNA: GGGAGUUCUACAGUCCGACGAUCUUGAAGGGUGUGAUGCUUGGAAGCAUUUUCUGUGCUUUGAUCACUAUGCUAGGACACAUUAGGAUUGGUCAUGGAAAUAGAAUGCACCACCAUGAGCAUCAUCACCUACAAGCUCCUAACCAACAGAGGAUUGAGCAUCA
# B22: ENSG00000124766:be:win_2451|3pUTR|ENSG00000124766|bound_else_gene|NA|bound_elsewhere_windowed (ssRNA)
# RNA: GGGAGUUCUACAGUCCGACGAUCAAAAAAGAAAAAAAAAAGAUUUUUUUCUUCUCUUAAUCGGAAUCGUGAUGGUGUUGGAUUAUUUCAAUGGUGGGGUUAAUAUAGCAUGUUAUCCUGUCUAUCUUUUAAAGAUUUCUGUAUCAACAGAGGAUUGAGCAUCA
# Target: MSI1 full-length (mouse, UniProt Q61474 1-362)
# Experiment: nsRBNS (natural sequence RNA bind-n-seq); RBNS binding buffer (assumed for nsRBNS): 25 mM Tris pH 7.5, 150 mM KCl, 3 mM MgCl2, 0.01% Triton X-100, 500 ug/ml BSA, 20 U/ml SUPERase-In, 4 C; UNK is unkempt and MSI1 is Musashi-1; names of the RNAs are library labels; protein concentration not given here; high values mean tight binding
# UniProt Q61474, sequence (Q61474 whole entry): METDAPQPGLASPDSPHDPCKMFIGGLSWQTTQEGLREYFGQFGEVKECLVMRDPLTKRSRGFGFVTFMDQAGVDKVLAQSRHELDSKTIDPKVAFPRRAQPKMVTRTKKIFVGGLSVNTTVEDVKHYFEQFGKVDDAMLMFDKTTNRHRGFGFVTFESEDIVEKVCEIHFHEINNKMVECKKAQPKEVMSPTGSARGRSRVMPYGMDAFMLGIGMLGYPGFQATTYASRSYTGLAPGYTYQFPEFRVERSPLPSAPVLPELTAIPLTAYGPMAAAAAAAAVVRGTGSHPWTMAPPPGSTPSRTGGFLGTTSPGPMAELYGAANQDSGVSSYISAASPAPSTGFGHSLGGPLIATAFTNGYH
row,Binder,binding signal
1,B1,3.04 enrichment R
2,B2,0.331 enrichment R
3,B3,0.554 enrichment R
4,B4,0.777 enrichment R
5,B5,0.621 enrichment R
6,B6,0.736 enrichment R
7,B7,8.63 enrichment R
8,B8,17.9 enrichment R
9,B9,0.495 enrichment R
10,B10,0.282 enrichment R
11,B11,0.983 enrichment R
12,B12,0.388 enrichment R
13,B13,0.246 enrichment R
14,B14,0.411 enrichment R
15,B15,0.434 enrichment R
16,B16,0.615 enrichment R
17,B17,0.484 enrichment R
18,B18,0.401 enrichment R
19,B19,0.198 enrichment R
20,B20,0.89 enrichment R
21,B21,0.458 enrichment R
22,B22,0.433 enrichment R
